Reference: US11130803B2, “Isoform-selective TGFβ1 inhibitors and use thereof” (Scholar Rock, Inc., priority 2018, dated 2021)

Experiments:
[1] = biological target: T1, recombinant human GARP-proTGFβ1 complex (Homo sapiens, UniProt P01137); assay: Octet (Biolayer Interferometry) in vitro kinetic binding; conditions: in M
T1 construct: made in house
Excerpt: (§1) Biolayer Interferometry (BLI):BLI is a label-free technology for optically measuring biomolecular interactions, e.g., between a ligand immobilized on the biosensor tip surface and an analyte in solution. BLI provides the ability to monitor binding specificity, rates of association and dissociation, or concentration, with precision and accuracy. BLI platform instruments are commercially available, for example, from ForteBio and are commonly referred to as the Octet® System.
(§2) BLI-based binding assays are widely used in the art for measuring affinities and kinetics of antibodies to antigens. It is a label-free technology in which biomolecular interactions are analyzed on the basis of optical interference. One of the proteins, for example, an antibody being tested, can be immobilized on the biosensor tip. When the other protein in solution, for example, an antigen, becomes bound to the immobilized antibody, it causes a shift in the interference pattern, which can be measured in real-time. This allows the monitoring of binding specificity, rates of association and dissociation, as well as concentration dependency. […] Due to its ease of use and fast results, BLI-based assays such as the Octet® system (available from ForteBio/Molecular Devices, Fremont Calif.), are particularly convenient when used as an initial screening method to identify and separate a pool of “binders” from a pool of “non-binders” or “weak binders” in the screening process.
(§3) Table 8 below provides non-limiting examples of high-affinity, context-independent proTGFβ1 antibodies encompassed by the present invention. The table provides representative results from in vitro binding assays, as measured by Octet®.
(§4) Column (A) of the table lists monoclonal antibodies with discrete amino acid sequences. […] Columns (B), (D), (E) and (F) provide affinities of each of the listed antibodies, measured in KD. […] Average KD values of (B) and (C) are shown in the corresponding column (D), which collectively represents affinities of the antibodies to ECM- or matrix-associated proTGFβ1 complexes. Similarly, Average KD values of (E) and (F) are shown in the corresponding column (G), which collectively represents affinities of the antibodies to cell-surface or cell-associated proTGFβ1 complexes. Finally, relative ratios between the average KD values from columns (D) and (G) are expressed as “fold bias” in column (H). Thus, the greater the number of column (H) is, the greater bias exists for the particular antibody, when comparing binding preferences of the antibody for matrix-associated complexes and cell-surface complexes. This is one way of quantitatively representing and comparing inherent bias of antibodies to their target complexes. Such analyses may be useful in guiding the selection process for a candidate antibody for particular therapeutic use.
(§5) In some embodiments, the binding affinity of an antibody, or antigen binding portion thereof, to an antigen (e.g., protein complex), such as presenting molecule-proTGFβ1 complexes, is determined using an Octet assay. In some embodiments, an Octet assay is an assay that determines one or more a kinetic parameters indicative of binding between an antibody and antigen. In some embodiments, an Octet® system (ForteBio, Menlo Park, Calif.) is used to determine the binding affinity of an antibody, or antigen binding portion thereof, to presenting molecule-proTGFβ1 complexes. For example, binding affinities of antibodies may be determined using the fortéBio Octet QKe dip and read label free assay system utilizing bio-layer interferometry. In some embodiments, antigens are immobilized to biosensors (e.g., streptavidin-coated biosensors) and the antibodies and complexes (e.g., biotinylated presenting molecule-proTGFβ1 complexes) are presented in solution at high concentration ([…]) to measure binding interactions. […]

[2] = biological target: T2, recombinant human LRRC33-proTGFβ1 complex (Homo sapiens, UniProt P01137); assay: as above; conditions: in M
T2 construct: made in house
T2 sequence (P01137 30-390): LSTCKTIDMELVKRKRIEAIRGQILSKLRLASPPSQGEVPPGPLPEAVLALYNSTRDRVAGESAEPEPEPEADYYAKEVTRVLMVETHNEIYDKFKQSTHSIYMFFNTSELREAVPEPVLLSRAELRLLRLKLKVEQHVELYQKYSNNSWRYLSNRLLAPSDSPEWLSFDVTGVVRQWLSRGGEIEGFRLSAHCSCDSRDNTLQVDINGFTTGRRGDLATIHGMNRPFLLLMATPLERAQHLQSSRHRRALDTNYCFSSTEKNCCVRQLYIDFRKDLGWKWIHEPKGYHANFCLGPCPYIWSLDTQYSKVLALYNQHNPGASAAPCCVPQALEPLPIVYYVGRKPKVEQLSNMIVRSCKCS
T2 sequence (Q86YC3 19-650 partner limits assumed): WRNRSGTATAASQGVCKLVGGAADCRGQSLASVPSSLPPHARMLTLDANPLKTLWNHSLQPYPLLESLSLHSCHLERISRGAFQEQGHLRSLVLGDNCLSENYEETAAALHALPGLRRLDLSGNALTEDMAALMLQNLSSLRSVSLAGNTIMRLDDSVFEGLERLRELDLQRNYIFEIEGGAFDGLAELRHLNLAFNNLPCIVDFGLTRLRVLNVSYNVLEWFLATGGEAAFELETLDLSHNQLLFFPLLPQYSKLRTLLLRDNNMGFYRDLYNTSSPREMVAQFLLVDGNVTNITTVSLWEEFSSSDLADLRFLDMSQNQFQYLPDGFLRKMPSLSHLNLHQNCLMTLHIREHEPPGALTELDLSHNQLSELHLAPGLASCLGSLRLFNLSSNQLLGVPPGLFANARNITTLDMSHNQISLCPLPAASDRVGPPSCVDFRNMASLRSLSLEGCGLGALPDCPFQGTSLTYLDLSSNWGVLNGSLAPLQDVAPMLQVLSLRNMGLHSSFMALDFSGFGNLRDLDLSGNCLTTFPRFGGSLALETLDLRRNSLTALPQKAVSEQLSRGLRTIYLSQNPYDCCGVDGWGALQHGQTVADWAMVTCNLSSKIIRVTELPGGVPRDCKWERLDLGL
Excerpt: as §1, §2, §3, §4, §5

[3] = biological target: T3, recombinant human LTBP1-proTGFβ1 complex (Homo sapiens, UniProt P01137); assay: as above; conditions: in M
T3 construct: made in house; host or cells: Expi293F cells, transient co-transfection
T3 sequence (P01137 30-390): as the sequence (P01137 30-390) above
T3 sequence (Q14766 873-1507 partner): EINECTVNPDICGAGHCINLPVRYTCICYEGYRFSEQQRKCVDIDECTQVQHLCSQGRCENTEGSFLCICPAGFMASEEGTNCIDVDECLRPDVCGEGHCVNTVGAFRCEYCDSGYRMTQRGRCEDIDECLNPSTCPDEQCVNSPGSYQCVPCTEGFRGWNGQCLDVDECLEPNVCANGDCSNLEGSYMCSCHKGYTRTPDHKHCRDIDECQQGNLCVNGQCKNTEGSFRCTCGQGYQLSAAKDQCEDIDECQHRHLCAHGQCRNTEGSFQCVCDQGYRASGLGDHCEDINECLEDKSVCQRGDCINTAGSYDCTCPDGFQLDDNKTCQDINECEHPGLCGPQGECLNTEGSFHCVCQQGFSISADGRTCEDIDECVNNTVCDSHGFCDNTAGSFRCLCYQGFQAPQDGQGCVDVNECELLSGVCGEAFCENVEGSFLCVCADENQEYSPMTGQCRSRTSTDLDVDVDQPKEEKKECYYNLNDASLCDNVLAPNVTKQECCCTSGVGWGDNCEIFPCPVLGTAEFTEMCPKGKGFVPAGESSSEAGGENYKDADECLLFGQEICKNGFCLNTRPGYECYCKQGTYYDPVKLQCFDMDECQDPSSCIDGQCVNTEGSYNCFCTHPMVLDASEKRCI
Excerpt: as §1, §2, §3, §4, §5

[4] = biological target: T4, recombinant human LTBP3-proTGFβ1 complex (Homo sapiens, UniProt P01137); assay: as above; conditions: in M
T4 construct: made in house; host or cells: Expi293F cells, transient co-transfection
T4 sequence (P01137 30-390): as the sequence (P01137 30-390) above
T4 sequence (Q9NS15 866-1039 partner limits assumed): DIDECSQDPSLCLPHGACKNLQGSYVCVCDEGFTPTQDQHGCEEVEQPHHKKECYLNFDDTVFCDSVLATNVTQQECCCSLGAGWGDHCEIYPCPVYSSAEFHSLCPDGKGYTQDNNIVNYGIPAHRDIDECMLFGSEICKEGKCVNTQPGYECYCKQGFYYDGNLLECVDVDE
Excerpt: as §1, §2, §3, §4, §5

[5] = system: hLTBP1-/hLTBP3-proTGFβ1 vs hGARP-/hLRRC33-proTGFβ1 complexes; assay: Solution equilibrium titration: relative affinity (bias) LTBP complexes vs cell-associated complexes; format: binding, human
Excerpt: Context-biased: As used herein, “context-biased antibodies” refer to a type of conformational antibodies that binds an antigen with differential affinities when the antigen is associated with (i.e., bound to or attached to) an interacting protein or a fragment thereof. Thus, a context-biased antibody that specifically binds an epitope within proTGFβ1 may bind LTBP1-proTGFβ1, LTBP3-proTGFβ1, GARP-proTGFβ1 and LRRC33-proTGFβ1 with different affinities. […] Relative affinities of [matrix-associated complexes]: [cell-associated complexes] may be obtained by taking average KD values of the former, taking average KD values of the latter, and calculating the ratio of the two, as exemplified herein.
In a yet further aspect, the present disclosure provides context-biased TGFβ1 inhibitors. The context-biased antibodies include LTBP-biased antibodies with higher affinities for ECM-associated LLCs than for cell-associated LLCs wherein the affinities are measured at equilibrium.

[6] = system: matrix-associated (LTBP1/LTBP3) and cell-associated (GARP/LRRC33) proTGFβ1 complexes; assay: Octet: average KD and fold bias, matrix- vs cell-associated complexes; format: binding, human; conditions: average KD of (B) and (C), read-out: (D) ECM AVRG

T1 sequence (P01137 30-390): as the sequence (P01137 30-390) above
T1 sequence (Q14392 20-627 partner limits assumed): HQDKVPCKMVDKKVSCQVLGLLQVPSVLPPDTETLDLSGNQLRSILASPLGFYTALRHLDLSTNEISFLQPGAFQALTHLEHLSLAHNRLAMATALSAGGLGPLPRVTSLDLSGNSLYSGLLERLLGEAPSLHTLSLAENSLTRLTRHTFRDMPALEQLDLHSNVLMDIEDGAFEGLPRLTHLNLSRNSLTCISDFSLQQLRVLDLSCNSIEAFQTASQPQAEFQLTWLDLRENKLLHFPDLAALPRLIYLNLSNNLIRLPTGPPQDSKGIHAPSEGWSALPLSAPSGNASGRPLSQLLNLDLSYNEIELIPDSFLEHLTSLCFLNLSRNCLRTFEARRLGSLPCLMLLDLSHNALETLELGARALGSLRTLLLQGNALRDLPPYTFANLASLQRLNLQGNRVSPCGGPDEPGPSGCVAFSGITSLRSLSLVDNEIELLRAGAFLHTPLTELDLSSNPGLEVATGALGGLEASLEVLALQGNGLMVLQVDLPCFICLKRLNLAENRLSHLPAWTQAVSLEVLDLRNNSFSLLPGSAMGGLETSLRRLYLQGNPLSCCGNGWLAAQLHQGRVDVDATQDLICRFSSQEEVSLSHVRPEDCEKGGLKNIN

B1: Ab35: monoclonal antibody; VH SEQ ID NO: 252, VL SEQ ID NO: 236 (antibody, V domains shown)
VH: EVQLLESGGGLVQPGGSLRLSCAASGFTFRNYAMSWVRQAPGKGLEWVSSISGSGGATYYADSVKGRFTISRDNSKNTLYLQMNSLRAEDTAVYYCARVSSYLWDFDYWGQGTLVTVSS
VL: [… about 100 residues …]FTFGQGTKVEIK
In the case of B1, the “(E) hGARP, Cell-associated proTGFb1 (KD)” value [1] is reported as 7.37E−09, the “(F) hLRRC33, Cell-associated proTGFb1 (KD)” value [2] is reported as 5.45E−10 and the “(B) hLTBP1, Matrix-associated proTGFb1 (KD)” value [3] is reported as 1.59E−10. The “(C) hLTBP3, Matrix-associated proTGFb1 (KD)” value [4] was 1.69E−10, the “matrix/LTBP-bias in relative affinities between at least one matrix-associated and at least one cell-associated complex” value [5] was “more than five-fold” and the Kd ([5]; MSD-SET, average KD of (B) and (C), read-out: (D) ECM AVRG) was 0.265 nM. The “(H) G/D (fold bias)” value ([5]; MSD-SET, ratio of average KD cell-associated / matrix-associated) was 4.15 fold and the Kd [6] was 0.164 nM.
